Each structure is given as a SMILES string. Some structures have more than one record in an assay (separate samples or runs), and their calls can disagree.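 A percent growth of 40 corresponds to 60% growth inhibition; 0 means no net growth; -100 means all cells died. Active threshold: below 10.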 A number of entries come with more than one value. This list holds those alone. The source may hold further records. These are repeated runs of one drug, at the concentration stated with the values; one value stands for one run. Signs of the kind (2×) give the number of equal values in this list.

In this test the test system is DU-145 prostate. Description: NCI-60 one-dose screen, 48 h (100 = growth as untreated, 0 = no growth, -100 = all killed). The note with it: 0.25 µM.

As for `COc1cccc2c1C(=O)c1c(O)c3c(c(O)c1C2=O)C[C@@](O)(C(=O)CO)C[C@@H]3OC1CC(N)C(O)C(C)O1` (stereo not given in full), the growth result (runs of 2006) is “active: -8.78% and inactive: 13.4%”; the growth entry (runs of 2007) was “inactive: 14, 24.6, 10.2, 14.1, 11.4, 21.3, 22.5, 28.8 (2×), 36.3, 11.8, 13.2, 31.1, 22.1 (2×), 35, 24.7, 15.9, 35.4, 57.2, 24.3, 46.4, 10.7, 28, 22, 39.2, 40.1, 50.5, 33.5, 15.7, 17.2, 23.7, 20% and active: -9.77, 9.07, 3.29, -39, 5.2, 1.01%”; the growth entry (runs of 2008) was “inactive: 30.5, 22.9, 28.7 (2×), 26.2, 21.3, 34, 27.2, 28.1, 30, 25.6, 26.8, 29.6, 23.6, 32, 27.6, 10.9, 12.6, 14.7 (2×), 15, 23.4 (2×), 19.9, 109, 26.3, 12.2, 22.2, 19.8, 17.2, 13.1, 15.7, 16.4, 31.4, 36.8, 34.8, 52.6, 29.1, 47.1, 44.5, 11.9, 20.5, 21.4, 15.5, 23.5% and active: 5.49, 9.03, 2.46, 9.82, 8.66, 7.75, 6.96, 6.44, 9.74, 8.23%”; the growth result (runs of 2009) was “inactive: 16.9, 14.9, 23.1 (2×), 18.7 (2×), 12.8, 28.6, 28.5, 22.2, 26.8, 27.7, 30.7, 26.7, 19.4 (2×), 27.1, 23.7, 31.8, 30.3, 18, 26.4, 26.3, 19, 16.1, 19.3, 24.1, 20, 24.6, 32.8, 21.4, 32, 15.1, 30, 23.9, 13.5, 24.2 (2×), 20.9 (2×), 34, 31.3, 24.9, 17.9 (2×), 16.7, 35.5, 60.9, 52.7, 31, 38.5, 34.8, 21.9% and active: 8.54, -34.2, 5.7, 2.16, 9.78, -2.51, -17.6%”; the growth result (runs of 2010) is “inactive: 41.7, 35.5, 34.4, 28.6, 36.3, 49, 32.9 (2×), 39.4, 47.1, 31.4, 28.2, 27.2 (2×), 26.9, 18.7, 18.8, 31.7, 12.6, 20.7, 12.1, 25.7, 14.8, 13.2, 30.6, 35.3, 26.7 (2×), 19.8, 30.1, 24.9, 28.1, 13.6, 38.4, 20.9, 27.3, 14 (2×), 36.7, 28.9, 23, 29.1, 25.3, 22.4, 25.5, 30.4, 29, 26.8, 22% and active: 5.51%, 3.06%, 2.73%”; the growth result (runs of 2011) was “inactive: 29, 31.3 (2×), 32.3 (3×), 28 (3×), 38.6, 27.6, 20.5, 30.3 (2×), 26.7, 38.3, 33.7, 31.7, 39.8, 37.2 (2×), 39.2, 36.7, 34.4, 30.8, 27.4, 26.1, 25, 23.6, 22.3, 21.6, 22.4 (2×), 22, 35.1, 37.1 (2×), 36.4, 38.7, 20.8, 18.6, 23.5, 23.7, 24.4, 14.8, 26.8, 10.5, 29.1, 17.9, 30, 24.3, 21%”. For the same molecule, the growth entry reads like this: (runs of 2012) “inactive: 31.7 (2×), 19.1, 19.8, 20.7 (2×), 28.9, 40.4, 26.1, 22.2 (2×), 21, 18.6 (2×), 21.9, 12.8, 23.9 (5×), 22.5, 16.8, 23.1, 22.9 (2×), 21.6, 30.4 (2×), 33, 24.6, 25, 24.9, 22, 34.3, 27.1, 24.3 (2×), 26.8 (2×), 28, 25.6, 19, 24.4, 32.8, 31.4, 39.2, 51.5 (2×), 41.7, 60.5, 45.5, 44.1, 53.7, 47.2, 62.6, 58.9, 21.5 (2×), 30 (2×), 26.2, 26.6, 20, 29.2, 29.9, 21.4, 23.4% and active: 3.61%”; (runs of 2013) “inactive: 11.7, 26.6, 30.1 (2×), 32, 30.6, 29.3, 29.6, 26.2, 38.3, 31.2 (2×), 27, 36, 37.6, 28.7 (2×), 41.2, 36.4, 27.7, 36.3 (2×), 28.2 (2×), 42.1, 30.5, 21, 38.8, 28.9 (2×), 41.7, 37.4, 29.2 (2×), 37.3, 29.7, 38.1, 24 (2×), 30.4 (2×), 27.6 (2×), 24.2 (2×), 32.3, 22.3, 32.4, 33.5, 24.8, 34.3, 33.2, 38, 21.9, 13.5, 24.9, 22.5 (2×), 24.4, 29.5, 23.4, 28.4, 21.1, 24.1, 27.3, 30%”; (runs of 2014) “inactive: 24.9 (2×), 24.6, 22.2, 13.6, 20.5 (2×), 21.6 (2×), 18.8, 21.5, 19.3, 25.9 (3×), 22.1 (4×), 26.8, 27, 16.8, 27.7, 26.1 (3×), 25.2 (2×), 26.5, 27.5, 27.1 (2×), 32.4, 29, 24.1, 23.9 (2×), 28.2, 26.3, 28.1, 24.8, 27.6, 27.3, 24, 28.5, 25.7 (5×), 29.2, 30.6, 19.4, 18.6 (2×), 22.9 (2×), 24.7 (2×), 24.3, 21.1, 22.6, 23.7, 23.4 (2×), 25.1, 31.1, 21.4, 33, 26, 32.1, 36.7, 30.8, 26.2, 22.3% and active: 8.28%”; (runs of 2015) “inactive: 31.6, 28.9 (2×), 23.1, 24.4, 21.9, 25.1, 31.1, 26.9 (2×), 24.9 (3×), 24.7 (2×), 24 (2×), 29.1 (2×), 30.9, 39.5, 23, 21, 21.5, 20.8, 22.3, 22.2 (3×), 22.6 (2×), 34.4, 30.6, 29.7, 25.5 (2×), 27.1, 26.8, 24.6 (2×), 23.7, 20.2, 18.8, 21.1, 24.8, 24.1 (3×), 25.7 (2×), 27.5, 27.2, 22, 22.5, 30.5, 20.5, 20, 19.8, 50.8, 27, 28, 25.2 (2×), 25.3, 20.9, 33.6, 33.9, 30, 28.2, 27.6, 26.6, 23.3, 28.6, 30.3, 24.3, 28.7 (2×), 32.2, 38.7, 26, 35, 36.7, 35.9%”; (runs of 2016) “inactive: 31, 28.6, 26.2, 35.9, 22.3, 28.4, 27.1, 24.3 (2×), 24, 21.9, 23 (2×), 20.9, 19.4, 23.1, 25.5, 17.7, 22.5, 18.1 (2×), 19.2, 23.5, 20.4, 28.1, 22.6, 26.7 (2×), 24.2 (2×), 23.6, 18.8, 26.1, 28, 31.3, 35.7, 40.1, 32.2 (2×), 29.2, 25.6, 22.8, 27.7, 27.2, 28.5, 31.7, 26.3, 33.5, 24.7, 33.6, 30.5, 43.7, 37, 36, 33, 39.8, 38.8, 43.3, 39, 34.8, 39.4, 40, 47.9, 41.2, 39.6, 40.3, 33.3, 30.3, 33.7, 31.6 (2×), 30.8, 38, 30.7%”; (runs of 2017) “inactive: 34.3, 33, 29.3, 31.4, 32.1, 28.4, 27.3, 23, 21.3 (2×), 25.9 (2×), 24.7 (2×), 23.5 (3×), 22.9, 20.5 (2×), 20.9 (2×), 23.4 (3×), 19.3, 22.6 (4×), 24.2, 23.7, 24.9, 26.2 (2×), 22.3, 28.7, 25.6, 23.1 (2×), 30.1 (2×), 30.8, 21.6, 26.3 (2×), 27.5 (2×), 18.3, 20.4, 21.9, 26.7 (2×), 23.3 (2×), 22.5, 15.6, 23.6 (2×), 24 (2×), 22, 19.2 (2×), 18.7 (2×), 19.9, 31.5, 32.2 (2×), 24.6, 25.1, 22.1, 29, 29.9, 30, 26.1, 28, 31, 37, 32.7%”. Also, the growth result runs as follows: (runs of 2018) “inactive: 29.7, 31.7, 27.7, 28.8 (2×), 30.3, 28.9, 24 (3×), 26 (2×), 26.9, 26.6 (2×), 29.2, 31.2 (2×), 30.6, 36.2, 34.7, 39.7, 30.5, 29 (3×), 27 (2×), 26.1, 22.3, 30.4, 34.4, 30.1, 26.3 (2×), 23.7 (2×), 27.3, 28.2, 23, 24.1, 22.1, 21.1, 25, 24.3, 25.1, 29.3, 27.1, 25.5, 27.4, 28.1, 24.8, 33.6, 20.2%”; (runs of 2019) “inactive: 18.6, 11.8, 11.9, 17.7, 14.9, 23.4, 23.1, 14.8, 16.4, 15.9, 17.9 (2×), 25.5, 26.3 (2×), 19.9, 22.1, 16, 16.8, 14.6, 15, 17.2, 18.1, 12.6 (2×), 19.1, 16.7, 18, 20.7, 19.4, 16.1, 22.6, 25.6 (2×), 23.5, 23.6, 26.2, 25.9, 21, 31.3, 20.2%”; (runs of 2020) “inactive: 19.1, 22.4, 20.9, 19.3, 22.2, 22, 27.2, 21, 27.6, 22.5, 24.2, 28.9, 22.9, 26.7 (2×), 47.3, 25.7, 37.5, 30.1, 26.6, 30.8, 25.9, 31.7%”.

These data come from PubChem BioAssay (NCI).
